Data on 120 sequences can be found in the supplement of paper PMC10126150.

The data set relates to ATP. The experiment in a line: switch fluorescence ratio, 500 uM ATP over buffer (Cy3 cluster intensity, sum of 5 cycles each) (fold (ratio)); higher = stronger signal-on switching upon ATP binding; sequences stand for … in TCGTCGGCAGCGTCAGATGTGTATAAGAGACAGTTTTTTTTTTTTTTTTTTTTTTTTT…TC. Particulars: aptamer strand: ATP DNA aptamer (quencher-CACCTGGGGGAGTATTGCGGAGGAAGG + anchor), 100 nM annealed; ATP concentration: 500 uM; one replicate. The essentials:
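The fluorescence ratio divides summed target-cycle Cy3 intensity by summed buffer-cycle Cy3 intensity for each cluster and is averaged per switch-domain sequence. Cy3-labelled switching-strand clusters on a modified Illumina MiSeq flow-cell were annealed to 100 nM quencher-labelled ATP aptamer, then imaged in selection buffer and again after 15 min with 500 uM ATP at 22 °C. Five such cycles were run, with NaOH stripping and re-annealing between them, and clusters outside 100-1000 RFU were excluded.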

Sequences with one replicate were seen in a single cluster, so their values are uncertain.
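Also: ATP exposure 15 min at 22 °C before imaging.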

For the sequence ATACTTGTGG, the switch fluorescence ratio turned out to be 1.01.
The result for ATTTGCGCTT reads 1.01.
For CGACTTGCTG the value was 1.05.
Turning to GGCCGCAGAA, the switch fluorescence ratio came to 1.14.
For CAGAGCATGT the value was 1.03; for TATGTTTG, 0.991.
The result for GTGTGTTAAG reads 0.973; that for GATTTTAACT, 0.954; that for AGCCTCGTTT, 0.989.
The result for TCCAAGGGAA reads 1.08; that for GAGGCGTCCT, 1.08.
Regarding GGTGACCTGG, the switch fluorescence ratio was found to be 1.04.
The result for GGCGTCCCTT reads 1.02; that for GGAACGCATG, 1.05.
The result for ATCTGAAGTC reads 1.04; that for GTCATTACTG, 1.08.
The result for GGTTTGAATT reads 0.986.
In the case of TCGAACTAGA, the switch fluorescence ratio was determined as 0.969.
The result for TCTAGTAGTT reads 1.01; that for ATAATAGTGA, 0.968.
As for GCTGCAAATT, the switch fluorescence ratio worked out at 1.
The result for GAGGCGGTGT reads 0.996.
For CATGACGCA the value was 1.14.
The result for CAGGGTGCGC reads 1.06.
In the case of TTCGTCTCGT, the switch fluorescence ratio stood at 0.986.
The result for TGGGACCTAG reads 1.01; that for CGCCACAAGT, 1.12.
For ATTACTTG the value was 0.98; for TTTAAATTAC, 1.01; for TCACACACC, 1.46.
For ACCCGGAGTA, the switch fluorescence ratio came to 1.11.
For GACGCCGCCG the value was 1.08.
For CGAGCAACGT the value was 1.11; for AATAGGTATG, 1.06; for CTGGCCGAGC, 1.03.
Turning to TTCGTTTCAT, the switch fluorescence ratio came out at 1.
For TGACGGACGC the value was 1.26; for GACTGCCTTA, 1.03.
For CTTCTTAAAC the value was 1; for CGAGAACCGC, 1.06.
As to CCAGAGCGTG, the switch fluorescence ratio was 1.01.
For TTAAGTTGAC the value was 1.03; for AACGGTGGCT, 0.944.
For ATCGTCATCT the value was 0.984.
The result for CGATAACTCG reads 0.998; that for GGTACGGCGC, 0.996; that for AATAACGCT, 1.04.
In the case of TAAGGTTCC, the switch fluorescence ratio came out at 0.991.
The result for TGCTGCTCCA reads 1.13; that for CTGCAAGAAA, 1.01.
The result for CGCAAAGGTC reads 2.54; that for GATAACACAC, 1.28.
For CGTAGTATTT the value was 1.01; for TGATCCCAGC, 1.05; for CATGCGTGTC, 1.17.
On to AGCTGACGA, for which the switch fluorescence ratio is 1.05.
With TTGGTCCCGC, the switch fluorescence ratio was determined as 1.03.
For ATGGTAGTCT the value was 1.03.
The result for TCACCAAGGT reads 1.3.
The result for TGGTTAGTTA reads 1.05; that for CAGCGACAAT, 1.23; that for GTGCACCTAA, 1.
As to CCACATGAGG, the switch fluorescence ratio came to 0.996.
The result for ACGATACTTG reads 1.34; that for AACGTCTGCG, 1.01; that for TTACATGAGG, 0.964.
The result for GAGTGGAATT reads 1.02; that for AGATATTAGG, 0.994.
As to AAGTATTCTT, the switch fluorescence ratio was determined as 1.03.
For GGGCCACTCC the value was 1.05; for GGCTGCTTTT, 1; for AATCGGGCCT, 1.05.
The result for CGTATGCGTG reads 0.956; that for TTTGCATGTC, 1.09.
For AACTAGCCCG the value was 1.05; for CATAATGGTT, 1.04; for ACTAATGTTC, 1.03.
As for GTGGGACAGT, the switch fluorescence ratio worked out at 0.917.
The result for ATGATATTTA reads 1.02; that for AAAGCTACAA, 1.17.
Take GGCGCTACTT: the switch fluorescence ratio came to 0.991.
The result for GCCCCCTAAA reads 1.01; that for GTATGGGTAG, 1.01.
The result for ATTATGTGCC reads 1; that for CCCAGGATT, 1.13; that for AGTAAAGGAG, 1.01.
The result for CGTGAGTTTA reads 0.983.
TAGTTGGGTC: the switch fluorescence ratio worked out at 1.03.
The result for ATCGATTAGA reads 0.971; that for ACCTGTTTCG, 1.1.
In the case of TCATAGGGT, the switch fluorescence ratio came out at 1.01.
For AATGGCGCA the value was 0.983.
For TCCGGCCATG, the switch fluorescence ratio worked out at 1.18.
For TCACTTGCTT the value was 0.981; for TGGCCATTAG, 0.998; for ACGTGTTGCT, 0.995.
The result for TGGGTGAAA reads 1.02; that for TTGGATAACT, 0.98.
TGTGATCTGG: the switch fluorescence ratio came to 1.05.
Consider TTGGGTGGCC, for which the switch fluorescence ratio came to 1.08.
For GAACTGAGCG the value was 0.994; for CCTATTAGGT, 0.989; for TATACTATAG, 0.998.
Regarding AACTGGGGTC, the switch fluorescence ratio was 0.965.
Regarding ATGCGGAAT, the switch fluorescence ratio worked out at 1.01.
The result for AAGCTTTTGA reads 0.973; that for ATTAGTCTGT, 0.99; that for TAGTTATCC, 0.977.
The result for TAAACGGTAG reads 0.995; that for AAAAAACGAT, 1.01.
The result for GGAAGAGCTC reads 0.985.
For the sequence TGCCAAGCAG, the switch fluorescence ratio was determined as 1.04.
In the case of CACTACCGCA, the switch fluorescence ratio stood at 1.06.
Turning to TGTGAGTATA, the switch fluorescence ratio came out at 0.967.
Consider AACATTTCAT, for which the switch fluorescence ratio came out at 1.01.
The result for TTGCGCTCGA reads 1.02; that for AAACCCGCGA, 3.94.
With GCTAAAGCAG, the switch fluorescence ratio is 0.991.
The result for CGTATTGACC reads 1.01; that for TCGTCGGGCT, 1.02.
